Where “and” joins values, the source holds several entries; their conditions need not be identical. Identical values can stand only once. Out of some 16,000 compounds screened, about 120 (0.75%) were called active. The shares of active, inactive and inconclusive entries below differ from those in the screen. The call rests on the fitted dose curve; in most records, active means well fitted inhibition curve with a large enough effect; inconclusive means small, poorly fitted or top-dose-only effect; inactive means no such curve, though single readings can be large or run the other way. A potency beside an inconclusive call is a rough fit, not a confirmed value.
biological target: Rap guanine nucleotide exchange factor 3 (Homo sapiens) (UniProt O95398); experiment: Validation qHTS for antagonist of cAMP-regulated guanine nucleotide exchange factor 3 (EPAC1); settings: EPAC1 Rap1B-BODIPY-GDP exchange, fluorescence; activity change, negative = inhibition: at 150 µM (top of the series); further: nearly all actives have a fitted effect of over 75% in size;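 on activity change, negative = inhibition: plate controls were DMSO for no effect and ATA control for full effect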
Method in brief: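 EPAC1 (100 nM) mixed with 250 nM RAP1B-BODIPY-GDP and 50 uM GDP; compounds in concentration series, 5 min at room temperature. Fluorescence (ex 480/em 540 nm) read every 5 min for 30 min; normalized to ATA control and DMSO.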
Potency means the concentration at half of the fitted maximal effect; tags describe the fitted curve by direction and shape.

UniProt O95398, sequence (O95398 whole entry, looked up): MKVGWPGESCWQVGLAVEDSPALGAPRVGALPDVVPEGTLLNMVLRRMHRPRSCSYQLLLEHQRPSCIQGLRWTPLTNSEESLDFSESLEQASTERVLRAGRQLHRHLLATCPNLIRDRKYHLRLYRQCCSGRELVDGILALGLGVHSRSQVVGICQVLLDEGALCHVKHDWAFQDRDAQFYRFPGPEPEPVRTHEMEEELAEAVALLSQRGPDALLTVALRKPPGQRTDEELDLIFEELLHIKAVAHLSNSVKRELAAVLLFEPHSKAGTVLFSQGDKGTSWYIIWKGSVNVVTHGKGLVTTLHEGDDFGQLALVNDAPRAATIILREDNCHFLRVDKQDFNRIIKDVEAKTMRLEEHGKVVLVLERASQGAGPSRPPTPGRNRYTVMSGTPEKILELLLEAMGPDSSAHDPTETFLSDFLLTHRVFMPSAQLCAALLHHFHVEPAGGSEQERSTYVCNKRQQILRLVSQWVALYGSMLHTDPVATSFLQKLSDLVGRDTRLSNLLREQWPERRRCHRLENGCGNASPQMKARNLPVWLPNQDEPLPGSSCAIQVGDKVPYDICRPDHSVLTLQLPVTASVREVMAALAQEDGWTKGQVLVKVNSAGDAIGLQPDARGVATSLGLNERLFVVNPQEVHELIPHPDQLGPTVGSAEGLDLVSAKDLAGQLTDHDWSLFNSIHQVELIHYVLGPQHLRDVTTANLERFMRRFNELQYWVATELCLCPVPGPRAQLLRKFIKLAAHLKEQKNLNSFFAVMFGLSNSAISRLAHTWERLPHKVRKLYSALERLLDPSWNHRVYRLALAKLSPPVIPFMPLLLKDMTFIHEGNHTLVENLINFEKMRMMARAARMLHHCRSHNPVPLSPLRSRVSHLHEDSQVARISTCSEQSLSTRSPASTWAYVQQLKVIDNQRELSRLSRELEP

Compound	Potency	activity change, negative = inhibition
CCCCc1oc2ccc(NS(C)(=O)=O)cc2c1C(=O)c1ccc(OCCCN(CCCC)CCCC)cc1	inconclusive: 28.2 µM [inhibitor, full curve]	
CCCCCCC[n+]1ccc(/C=C/c2c(C)[nH]c3ccccc23)c2ccccc21	inconclusive: 112 µM [inhibitor, partial curve]	
CN(C)c1ccc(-c2nccc(NCc3cccs3)n2)cc1	inconclusive: 126 µM [inhibitor, partial curve, poor fit]	
CCCCC(CC)COC(=O)CC(C(=O)OCC(CC)CCCC)S(=O)(=O)O (centres undefined)	active: 56.2 µM and active: 25.1 µM	
Cc1cc2c(cc1C)N[C@]1(C[C@H]3CCCC(=O)N4CC[C@@H](C1)[C@@H]34)C(=NCc1ccccc1)N2	inactive	
CC(=O)Nc1ccc(SC[C@H](Cc2ccccc2)N2CC[C@@H](C(C)(C)C)CCC2=O)cc1	inconclusive: 50.1 µM [inhibitor, partial curve]	
CC(C)NC[C@@H](O)COc1ccccc1-n1cccc1	inconclusive: 20 µM [inhibitor, single point]	
CCCCCCCCCCCCCCCC[n+]1ccc(CC(O)c2c(C)[nH]c3ccccc23)c2ccccc21 (centres undefined)	inconclusive: 89.1 µM [inhibitor, partial curve, poor fit]	
CN1CCN(CCCN2c3ccccc3Sc3ccccc32)CC1	inactive	
CCCn1c(=O)c2[nH]c(-c3ccc(OCC(=O)Nc4ccc(C(C)=O)cc4)cc3)nc2n(CCC)c1=O	inconclusive: 6.31 µM [inhibitor, full curve, poor fit]	
CC(C)(O)C#Cc1ccc(C(=O)NCCN2Cc3ccccc3OC(c3ccccc3F)C2)o1 (centres undefined)	inconclusive: 56.2 µM [inhibitor, partial curve, poor fit]	
CCCC[C@H]1COCCS(=O)(=O)N1Cc1ccc(Br)cc1	inconclusive: 79.4 µM [inhibitor, partial curve, poor fit]	
C1=C(c2ccc3c(c2)CN(Cc2cccn2-c2ncccn2)CCO3)Cc2ccccc21	inactive	
O=c1c(O)c(Br)ccc2c(Br)c(O)c(O)c(O)c12	inconclusive: 25.1 µM [inhibitor, full curve]	
CCCCCCCCCCCCN1C/C(=C\C(=O)OCC)c2ccccc2S1(=O)=O	inconclusive: 28.2 µM [inhibitor, full curve]	
O=C(c1cc(C(F)(F)F)cc(C(F)(F)F)c1)N1CCC2(CCCN(c3ncccn3)C2)CC1	inconclusive: 35.5 µM [inhibitor, partial curve, poor fit]	
Cc1oc(-c2cccc(NC(=O)c3ccccn3)c2)nc1CNC(=O)c1ccc(C(F)(F)F)cc1	inconclusive: 25.1 µM [inhibitor, full curve]	
CC(C)[C@@H](C)/C=C/[C@@H](C)[C@H]1CC[C@H]2/C(=C/C=C3\C[C@@H](O)CC[C@@H]3C)CCC[C@]12C	inconclusive: 63.1 µM [inhibitor, partial curve]	
CCCCCCc1ccc(N2C[C@H](CCCCC)[C@@H](CC(=O)NCc3ccccc3)C2=O)cc1	inconclusive: 22.4 µM [inhibitor, full curve, poor fit]	
C=C[C@](C)(O)CCC1C(=C)CC(OC(C)=O)C2C(C)(C)CCCC12C (some centres undefined)	inconclusive: 22.4 µM [inhibitor, full curve]	

Compound	Potency	activity change, negative = inhibition
Cc1cc(C(C#N)c2ccc(Cl)cc2)c(Cl)cc1NC(=O)c1cc(I)cc(I)c1O (centres undefined)	active: 50.1 µM	
C=C1CC[C@H](O)CC1=C/C=C1\CCC[C@]2(C)[C@@H]([C@H](C)/C=C/[C@H](C)C(C)C)CC[C@@H]12	inconclusive: 89.1 µM [inhibitor, partial curve]	
Cc1cccc(CNc2ccnc(-c3ccccc3Cl)n2)c1	inactive	
COc1cc(/C=C(\C#N)C(=O)c2ccc(O)c(O)c2)cc(I)c1O	inconclusive: 2.24 µM [inhibitor, full curve, poor fit]	
CC1CN(CC(=O)NCCc2ccncc2)Cc2ccccc2O1 (centres undefined)	inactive	
COCCOC(=O)C1=C(C)NC(C)=C(C(=O)OC(C)C)C1c1cccc([N+](=O)[O-])c1 (centres undefined)	inconclusive: 44.7 µM [inhibitor, full curve, poor fit]	
COc1cc(C)c(CN2CCOc3ccc(C(O)c4cccnc4)cc3C2)cc1C (centres undefined)	inconclusive: 112 µM [inhibitor, single point]	
COc1ccc(-c2coc3cc(O)ccc3c2=O)c(O)c1O	inconclusive: 112 µM [inhibitor, single point]	
COc1ccccc1C1CN(Cc2cccc(OCCO)c2)Cc2ccccc2O1 (centres undefined)	inconclusive: 50.1 µM [inhibitor, full curve]	
COc1cccc(-c2nccc(NCc3ccccc3)n2)c1	inconclusive: 63.1 µM [inhibitor, partial curve, poor fit]	
O=C(O)Cc1cc(I)c(Oc2ccc(O)c(I)c2)c(I)c1	inconclusive: 8.91 µM [inhibitor, full curve] and inconclusive: 17.8 µM [inhibitor, full curve]	
CC1=C2C(=COC(C)C2C)C(=O)C(C(=O)O)=C1O (centres undefined)	inconclusive: 50.1 µM [inhibitor, full curve, poor fit]	
CC(Cc1ccc(O)c(O)c1)C(C)Cc1ccc(O)c(O)c1 (centres undefined)	inconclusive: 112 µM [inhibitor, single point]	
COc1cccc(-c2nccc(NCCc3c[nH]c4ccc(OC)cc34)n2)c1	inconclusive: 126 µM [inhibitor, partial curve, poor fit]	
COc1ccc(-c2cc(=O)c3c(O)c(OC)c(OC)c(OC)c3o2)cc1OC	inconclusive: 28.2 µM [inhibitor, single point]	
CCCCCCCCCC[n+]1ccc(/C=C/c2c(C)[nH]c3ccccc23)c2ccccc21	inconclusive: 100 µM [inhibitor, single point]	
O=c1c(CCc2ccccc2)nc2cnc(N3CCOCC3)nc2n1Cc1ccc(F)cc1	inconclusive: 44.7 µM [inhibitor, partial curve]	
COC(=O)c1ccc(CN2CCOc3ccc(C(O)c4cccnc4)cc3C2)cc1 (centres undefined)	inactive	
CC[N+](C)(C)c1ccc(/C=C/c2ccnc3ccccc23)cc1	inconclusive: 44.7 µM [inhibitor, partial curve]	
CCCc1c(OCCCOc2ccc(OCC(=O)O)cc2)ccc(C(C)=O)c1O	inactive	

Compound	Potency	activity change, negative = inhibition
Cc1nc(NCc2cccc3c2OCO3)sc1-c1ccn(CC2CCCN(C)C2)n1 (centres undefined)	inactive	
Cc1nc(N=Nc2cc(S(=O)(=O)O)c3cc([N+](=O)[O-])cc(S(=O)(=O)O)c3c2)c(COP(=O)(O)O)c(C=O)c1O	inconclusive: 89.1 µM [inhibitor, partial curve, poor fit] and inconclusive: 112 µM [inhibitor, single point] and inactive	
CCCCCCCCCCC/C=C\C/C=C\CCCC(=O)O		inactive: -8.31% [at 15.3 µM]
CCNCCCNCCCCNCCCNCC	inconclusive: 31.6 µM [inhibitor, single point]	
CC[C@@]1(O)C(=O)OCc2c1cc1n(c2=O)Cc2cc3c(CN(C)C)c(O)ccc3nc2-1	inconclusive: 126 µM [inhibitor, single point]	
O=S1(=O)CCO[C@H]2Cc3ccccc3[C@H]2N1Cc1cccc(C(F)(F)F)c1	inconclusive: 20 µM [inhibitor, full curve, poor fit]	
C[C@@H](CSc1ccccc1)CN1CC[C@H](C(C)(C)C)CCC1=O	inconclusive: 63.1 µM [inhibitor, partial curve, poor fit]	
CCCCCCCCCCCCCCCC[n+]1ccc(/C=C/c2c(C)[nH]c3ccccc23)cc1	inconclusive: 112 µM [inhibitor, single point]	
CCCCCCCCCCCCN1[C@@H](CC(=O)O)c2cc(C(F)(F)F)ccc2S1(=O)=O	active: 89.1 µM	
COc1ccc(CNC(=O)C[C@H]2C(=O)N(CCc3ccccc3)C[C@@H]2Cc2ccccc2)cc1		inconclusive: -34.4% [inhibitor]
OCc1ccc(-c2nn(Cc3ccccc3)c3ccccc23)o1	inconclusive: 0.0562 µM [inhibitor, partial curve, poor fit]	
O=C(c1cc(C(F)(F)F)cc(C(F)(F)F)c1)N1CCC2(CCCN(Cc3ccccc3)C2)CC1	inconclusive: 44.7 µM [inhibitor, partial curve, poor fit]	
CC(C)=CCCC1(C)C=Cc2c(c(C)cc3c2[nH]c2ccccc23)O1 (centres undefined)	inconclusive: 70.8 µM [inhibitor, partial curve]	
Cc1cnc(-n2ncc(C(=O)NCCN3CCOCC3)c2C2CC2)nc1-c1cccs1	inactive	
O=C(c1cccc(F)c1)N1CCC2(CCN(Cc3cc(C(F)(F)F)cc(C(F)(F)F)c3)CC2)CC1	inconclusive: 28.2 µM [inhibitor, partial curve]	
CC(=O)N1CCC2(CCCN(c3ccc(-c4ccccc4)cc3)C2)CC1	inconclusive: 39.8 µM [inhibitor, partial curve, poor fit]	
CCCCC(CC)COC(=O)c1ccccc1O (centres undefined)	inactive	
C[C@@H](C1=C(CCN(C)C)Cc2ccccc21)c1ccccn1	inconclusive: 5.62 µM [inhibitor, full curve, poor fit]	
COc1ccc2[nH]cc(CCNc3ncnc4ccc(-c5cccc(C#N)c5)cc34)c2c1	inconclusive: 2.51 µM [inhibitor, full curve, poor fit]	

Source: PubChem BioAssay AID1645882 (National Center for Advancing Translational Sciences (NCATS), 2021)
